“And” between values parts separate entries of the source, which are not always exact repeats. Identical values can stand only once. Among all 310,000 compounds or so, about 18,000 (5.8%) were called active. The inconclusive results got no clear call from the source; some entries with a clear call stand among them for comparison. Calls come from the whole dose curve; as a rule, active = well fitted inhibition curve with a large enough effect; inconclusive = small, poorly fitted or top-dose-only effect, or another doubt; inactive = no such curve, though single readings can be large or run the other way. Potencies of inconclusive entries are doubtful fits and often do not repeat.
Assay: Primary qHTS for delayed death inhibitors of the malarial parasite plastid, 48 hour incubation
Settings: P. falciparum luciferase growth in erythrocytes; series mostly up to 28.7 µM; activity change, negative = inhibition: at the top concentration
How it was run: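 In quantitative HTS format, infected erythrocytes bearing luciferase-reporter parasites were treated for a single generation at 37 C. Luminescence after adding detection reagent served as the growth measure.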
% is set by controls: 0 for no effect and ±100 for the full control effect; potency is the fitted concentration of half-maximal effect; tags give direction and shape of the fitted curve.

Structure (SMILES) | Potency | activity change, negative = inhibition
CN(C)S(=O)(=O)c1ccc(-c2csc(N/N=C/c3ccco3)n2)cc1 | inconclusive: 18.5 µM [inhibitor, single point] | 
CSc1ccc(CCNC(=O)c2cccc3c2C(=O)N(C2CCCCC2)C3)cc1 | inconclusive: 13.1 µM [inhibitor, single point] | 
CS(=O)(=O)Nc1ccccc1C(=O)NCCSc1ccccc1 |  | inactive: 1.18%
Cc1ccccc1CCNC(=O)c1cc(C2CC2)nc2c1cnn2C(C)C | active: 11.7 µM | 
CN(C)CC/C=C1\c2ccccc2COc2ccccc21 | inactive and inconclusive: 16.5 µM [inhibitor, partial curve, poor fit] | 
CC1CC(C)CN(S(=O)(=O)c2ccc(NC(=O)C3COc4ccccc4O3)cc2)C1 (stereo not drawn) | inconclusive: 18.5 µM [inhibitor, single point] | 
CCC(C)Oc1cc(-c2ccnc(Nc3cccc(Cl)c3)n2)ccn1 (stereo not drawn) | inconclusive: 18.5 µM [inhibitor, single point] | 
CCC(=O)Nc1ccc(Cl)c(NC(=O)c2cccc(OC)c2)c1 |  | inactive: -5.81%
COc1cc(C(=O)Nc2nnc(C3CC3)s2)ccc1OCc1c(C)noc1C | inconclusive: 11.7 µM [inhibitor, single point] | 
COc1ccccc1Nc1nc(N)nc(CSC(=S)N2CCC(C)CC2)n1 | inconclusive: 18.5 µM [inhibitor, single point] | 
CCn1c(N2CCN(CC(=O)Nc3cccc(C)c3C)CC2)nc2ccccc21 | inconclusive: 5.86 µM [inhibitor, partial curve, poor fit] | 
COc1ccc(C)cc1N(C(=O)c1ccco1)C(C(=O)NC1CCCC1)c1ccc(N2CCOCC2)cc1 (stereo not drawn) | inconclusive: 11.7 µM [inhibitor, partial curve] | 
Brc1cccc(CNc2nc3ccccc3n2CCN2CCCCC2)c1 | inconclusive: 13.1 µM [inhibitor, single point] | 
C=C[C@H](CC(C)C)N(Cc1ccccc1)S(=O)(=O)N(Cc1ccc(OC)cc1)[C@H](C=C)CC(C)C | active: 5.22 µM | 
CCN1C(=O)[C@H]2[C@@H](c3ccc(-c4cccc(Cl)c4)c(OC)c3)N[C@@](C)(C(=O)OC)[C@H]2C1=O | active: 2.08 µM | 
COc1ccc(NC(=O)C2CC(c3c(F)cccc3Cl)=NO2)cc1OC (stereo not drawn) |  | inactive: -15.2%
CN1CCN(S(=O)(=O)c2ccc(NC(=O)c3ccc(Br)o3)cc2)CC1 | inconclusive: 11.7 µM [inhibitor, single point] | 
Cc1cccc(CC(=O)N2CCC(n3nccc3NC(=O)C3CC3)CC2)c1 |  | inactive: 0%
COC(=O)c1cc(CSc2nc3ccccc3c(=O)n2C)oc1C | inconclusive: 7.38 µM [inhibitor, partial curve, poor fit] | 
OC(C#CCN1CCOCC1)c1cccs1 (stereo not drawn) |  | inactive: 11.6%
CCOC(=O)c1nc(Nc2ccc(C(=O)O)cc2)c2ccccc2n1 |  | inactive: 1.06%
CCOC(=O)N1CCN(S(=O)(=O)N2CCCC(C(=O)NCCc3ccc(Cl)cc3)C2)CC1 (stereo not drawn) | inconclusive: 14.7 µM [inhibitor, single point] | 

Structure (SMILES) | Potency | activity change, negative = inhibition
CCOC(=O)c1c(S(=O)(=O)N2CCN(Cc3ccccc3)CC2)c(C)n(C)c1C |  | inactive: -14.1%
O=C(CSc1nnnn1C1CC1)N1CCN(c2ccc(O)cc2)CC1 | inconclusive: 16.5 µM [inhibitor, single point] | 
O=C(COC(=O)CN1C(=O)COc2ccccc21)NCc1ccc(F)cc1 |  | inactive: 1.54%
OC12CCCCC1C(c1ccc3c(c1)OCO3)N(Cc1ccc(F)cc1)CC2 (stereo not drawn) | active: 13.1 µM | 
C/C(=N\NC(=O)c1cc(-c2cccc(OC(C)C)c2)nc2ccccc12)c1cccnc1 | inconclusive: 14.7 µM [inhibitor, single point] | 
COc1ccc(S(=O)(=O)N2CCc3ccccc32)cc1C(=O)OCc1c(C)noc1C | inconclusive: 0.928 µM [inhibitor, partial curve, poor fit] | 
CCN(CC)CC(=O)Nc1ccc(Oc2ccc(NC(=O)CN(CC)CC)cc2)cc1 | inconclusive: 10.4 µM [inhibitor, single point] | 
CCOc1ccc(NC(=O)c2ccc(S(=O)(=O)N3CCOCC3)cc2)cc1 | inconclusive: 5.86 µM [inhibitor, partial curve, poor fit] | 
O=C(CSc1cccc(C(F)(F)F)c1)Nc1cc(S(=O)(=O)N2CCCC2)ccc1Cl | inconclusive: 18.5 µM [inhibitor, single point] | 
CCCCN(CC)C(=O)CSc1nc2n[nH]c(C)c2c(=N)n1-c1cccc(C)c1 | inconclusive: 10.4 µM [inhibitor, partial curve, poor fit] | 
CSc1cccc(NC(=O)c2nnn(Cc3ccccc3)c2N)c1 | active: 9.28 µM | 
Cc1cccn2cc(-c3c[nH]c4ccccc34)nc12 | inconclusive: 18.5 µM [inhibitor, single point] | 
CCOc1ccc([C@@H]2CC=C(C(=O)O)[C@H](c3ccc(F)cc3)N2S(=O)(=O)c2ccc(C)cc2)cc1 | inconclusive: 1.65 µM [inhibitor, partial curve, poor fit] | 
Cc1ccc(C2(C(F)(F)F)NC(=O)N3CCCN=C3S2)cc1 (stereo not drawn) | inconclusive: 6.57 µM [inhibitor, partial curve] | 
COc1ccc(C(=O)CC(c2ccccc2)S(=O)(=O)c2ccc(C)cc2)cc1 (stereo not drawn) |  | inactive: -4.5%
Cc1cc(O)c(N)c(C)c1Cl | active: 3.29 µM | 
O=[N+]([O-])c1ccc(N2CCCC2)c2ccncc12 | inconclusive: 1.04 µM [inhibitor, partial curve, poor fit] | 
Cc1ccccc1Cn1cnc2c(NS(C)(=O)=O)c(C)c(C)cc21 | inconclusive: 10.4 µM [inhibitor, single point] | 
CNC(=S)N/N=C/c1ccc(N(C)C)cc1 |  | inactive: 39.8%
O=c1cc(CN2CCN(S(=O)(=O)c3ccc4ccccc4c3)CC2)nc2sccn12 |  | inactive: 14.5%
O=C(CN(c1ccccc1Cl)S(=O)(=O)c1ccccc1)N/N=C/c1ccccc1C(=O)O | inconclusive: 9.28 µM [inhibitor, partial curve, poor fit] | 

Reference: PubChem BioAssay AID504832 (National Center for Advancing Translational Sciences (NCATS), 2011)
